Among the data in the RNAGym collection of RNA variant scans (doi:10.7554/elife.90254) are self-cleavage values, retold here.

The source gives no read counts; variants with many changes may rest on few reads.

Sequences and labels used below:
B1: OR4K15 (parent)
chain: GUUAACGGUCAUAGGCCAUGGAAACUAGGAGCACCAUUUCGCUGCCAGUGAAGAAAUGAACAAAGAAAAUCUGGGCCAGGCAGGCAUCAAAAGAAAUAGUCUUGCGCUCAACCAGAAAGUCUGUAAUCAUUUUAAGGGUA

In the data set the parent is B1. Briefly: self-cleavage, relative activity (ratio to wild type); higher = more cleavage; in vitro, sequencing; the parent is a self-cleaving ribozyme.
Regarding GUUAACGGUCAUAGGCCAUGGAAACUAGGCGCACCCUAUCGCUGCCAGUGAAGAAAUGAACAAAGAAAAUCUGGGCCAGGCAGGCAUCAAAAGUAAUAGUCUUGCGCUCAACCAGAAAGUCUGUAAUCAUUUUAAGGGUA, the self-cleavage is 2.08.
GUUAACGGUCAUAGGCCAUGGAAACUAGAAGCACCAUUUCGCUGCCAGUGAAGAAAUGAACAAAGAAAAUCUGGGCCGGGCAGGCAUCAAAAGAAAUAGUCUUGCGCUCAACCUGAAAGUCUGUAAUCAUUUUAAGGGUA: the self-cleavage turned out to be 0.02.
The value for GUUAACGGUCAUAGGCCAUGGAAACUAGGGGCACCAUUUCGCUGCCAGUGAGGAAAUGAACAAGGAAAAUCUGGGCCAGGCAGGCAUCAAAAGAAAUAGUCUUGCGCUCAACCUGAAAGUCUGUAAUCAUUUUAAGGGUA was 0.15; that for GUUAACGGUCAUAGGCCAUGGAAACUAGGGGCACCAUUUCGCUGCCGGCGGAGAAAUGAACAAAGAAAAUCUGGGCCAGGCAGGCAUCAAAAGAAAUAGUCUUGCGCUCAACCAGAAAGUCUGUAAUCAUUUUAAGGGUA was 0.65.
The same measure for GUUAACGGUCAUAGGCCAUGGAAACUAGGGGCACCAUUUCGCUGCCGGUGAAGAAAUGAACAAAGAGAAUCUGGGCCAGGCAGGCAUCAAAAGAAACAGUCUUGCGCUCAACCAGAAAGUCUGUAAUCAUUUUAAGGGUA: 0.81; for GUUAACGGUCAUAGGCCAUGGAAACUAGUAGCACCAUUUCGCUGCCUGUGAAGAAAUGAACAAAGAAAAUCUGGGCCAGGCAGGCAUCAAAGGAAGUAGUCUUGCGCUCAACCAGAAAGUCUGUAAUCAUUUUAAGGGUA: 0.81.
Regarding GUUAACGGUCAUAGGCCAUGGAAACUAGAAGCACCAUUUCGCUGCCAGUGAAGAAAUGAACAAAGAAAAUCUGGGCCAGGCUGGCACCAAAAGAGAUAGUCAUGCGCUCAACCAGAAAGUCUGUAAUCAUUUUAAGGGUA, the self-cleavage was found to be 0.8.
The same measure for GUUAACGGUCAUAGGCCAUGGAAACUAGGGGCACCAUUUCGCUGCCAGUGGAGAAAUGAACAAAGAAAAUCUGGGCCAGGCAGGCACCAAAAGAAAUAGUCUUGCGCUCAACCAGAAGGUCUGUAAUCAUUUUAAGGGUC: 1.08; for GUUAACGGUCAUAGGCCAUGGAAACUAGGGGCACCGUUCCGCUGCCAGUGAAGAAAUGAACGAAGAAAAUCUGGGCCAGGCAGGCAUCAAAAGAAAUAGUCUUGCGCUCAACCAGAAAGUCUGUAAUCAUUUUAUGGGUA: 1.42.
The same measure for GUUAACGGUCAUAGGCCAUGGAAACUAGGGGCACCAUUUCGCUGCCAGUGUAGAAAUGAACAAGGAAAAUCUGGGCCAGGCAGGCAUCAAAAGAAAUAGUCUUGCGCUCAACCAGAAAGUCUGUAAUCAUUUUAAGGGUA: 0.97; for GUUAACGGUCAUAGGCCAUGGAAACUAGGCGCACCAUUUCGCUGCCAGUGAAGAAAUGAACAAAGAAAAUCUGGGCCAGGCAGGCAUCAGAAGAAAUAGUCUUGCGCUCAACCAGAAGGUCUGUAAUCAUUUUAAGGGUA: 0.72.
The same measure for GUUAACGGUCAUAGGCCAUGGAAACUAGUAGCACCAUUUCGCUGCCAGUGAAAAAAUGAACAAAGAUAAUCUGGGCCAGGCAGGCAUCAAAAGAAAUAGUCUUGCGCUCAACCAGAAAGUCUGUAAUCAUUUUAAGGGUA: 1.89; for GUUAACGGUCAUAGGCCAUGGAAACUAGGGGCACCCUUUCGCUGCCAGUGAAGGAAUGAACAGAGAAAAUCUGGGCCAGGCAGGCAUCAAAAGAAAUAGUCUUGCGCUCAACCAGAAAGUCUGUAAUCAUUUUAAGGGUA: 0.66; for GUUAACGGUCAUAGGCCAUGGAAACUAGGGGCACCAUUUCGCUGCCAGUGGAGAAAUGAACAAAGAAAAUCUGGGCCAGGCUGGCAUCAAAAGAAAUAGUCUUGCGCUCAACCAGAAAGUCUGUAAUCAUUUUAAGGGUA: 0.11.
For the variant GUUAACGGUCAUAGGCCAUGGAAACUAGGGGCACCCUUUCGCUGCCAGUGAAGAAAUGAACAAAGAAAAUCUGGGCCAGGCAGGCAUCAAAAGAAAUAGUCUUGCGCUCAACCAGAUAGUCUGUAAUCAUUUUAAGGGUA, the self-cleavage was found to be 0.94.
The same measure for GUUAACGGUCAUAGGCCAUGGAAACUAGGGGCACCGUUUCGCUGCCAGUGAAGAAAUGAACAAAGAAAAUCUGGGCCAGGCAGGCAUCAAAAGGAAUAGUCUUGCGCUCAACCGGAAAGUCUGUAAUCAUUUUAAGGGUA: 1.33.
The same measure for GUUAACGGUCAUAGGCCAUGGAAACUAGGGGCACCAUUUCGCUGCCAGUGAGGAAAUGAACAAAGAAAAUCUGGGCCAGGCAGGCGUCAAAAGAAAUAGUCUUGCGCUCAACCAGAAAGUCUGUAAUCAUUUUAAGGGUA: 1.73.
The value for GUUAACGGUCAUAGGCCAUGGAAACUAGAAGCACCAUUUCGCUGCCAGUGAAGAAAUGAACAAAGAAAAUCUGGGCCGGGCAGGCAUCAAAAGAAAUAGUCUUGCGCUCAACCAGAAGGUCUGUAAUCAUUUUAAGGGUA was 0.13; that for GUUAACGGUCAUAGGCCAUGGAAACUAGGGGCACCAUUUCGCUGCCAGUGUAGAAAUGAACAAAGGAAAUCUGGGCCAGGCAGGCAUCAAAAGAAAUAGUCUUGCGCUCAACCAGAAAGUCUGUAAUCAUUUUAAGGGUA was 1.78; that for GUUAACGGUCAUAGGCCAUGGAAACUAGGGGCACCAUUUCGCUGCCGGUGAAGAGAUGAACAAAGAAAAUCUGGGCCAGGCAGGCAUCAAAAGAAGUAGUCUUGCGCUCAACCAGAAAGCCUGUAAUCAUUUUAAGGGUA was 0.14.
Consider GUUAACGGUCAUAGGCCAUGGAAACUAGGGGCUCCAUUUCGCUGCCAGUGAAGAAAUGAACGAAGAAAAUCUGGGCCAGGCAGGCAUCAAAAGAAAUAGUCUUGCGCUCAACCAGAAAGUCUGUAAUCAUUUUAAGGGUA, for which the self-cleavage came out at 1.6.
